In the supplement of paper PMC8728848:
Some of the results follow.

Assays:
Assay in all cases: glycan array binding signal (z-score within array); higher = stronger binding
Details in all cases: glycan notation: IUPAC condensed, linker removed
[1] = biological target: Fuc(a1-2)[GalNAc(a1-3)]Gal(b1-4)Glc
Outline: (§1)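 Glycan array data were curated from 3228 arrays in the Consortium for Functional Glycomics database and kept only where the protein sequence was available. Glycan names were converted to IUPAC-condensed notation, and columns mapping to the same glycan were averaged. The binding signal is a within-array Z-score, averaged across arrays of the same protein sequence at different concentrations or buffers and across linkers. Negative Z-scores can be read as non-binding.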

[2] = biological target: Fuc(a1-2)[GalNAc(a1-3)]Gal(b1-4)GlcNAc
Outline: as §1

[3] = biological target: Fuc(a1-2)[GalNAc(a1-3)]Gal(b1-4)GlcNAc(b1-2)Man(a1-3)[Fuc(a1-2)[GalNAc(a1-3)]Gal(b1-4)GlcNAc(b1-2)Man(a1-6)]Man(b1-4)GlcNAc(b1-4)GlcNAc
Outline: as §1

[4] = biological target: Fuc(a1-2)[GalNAc(a1-3)]Gal(b1-4)GlcNAc(b1-2)Man(a1-3)[Fuc(a1-2)[GalNAc(a1-3)]Gal(b1-4)GlcNAc(b1-2)Man(a1-6)]Man(b1-4)GlcNAc(b1-4)[Fuc(a1-6)]GlcNAc
Outline: as §1

[5] = biological target: Fuc(a1-2)[GalNAc(a1-3)]Gal(b1-4)GlcNAc(b1-3)Gal(b1-4)GlcNAc
Outline: as §1

[6] = biological target: Fuc(a1-2)[GalNAc(a1-3)]Gal(b1-4)GlcNAc(b1-3)Gal(b1-4)GlcNAc(b1-3)Gal(b1-4)GlcNAc
Outline: as §1

[7] = biological target: Fuc(a1-2)[GalNAc(a1-3)]Gal(b1-4)GlcNAc(b1-3)GalNAc
Outline: as §1

[8] = biological target: Fuc(a1-2)[GalNAc(a1-3)]Gal(b1-4)[Fuc(a1-3)]GlcNAc
Outline: as §1

[9] = biological target: Fuc(a1-2)[GalNAc(a1-3)]Gal(b1-4)[Fuc(a1-3)]GlcNAc(b1-3)GalNAc
Outline: as §1

[10] = biological target: Fuc(a1-2)[GalNAc(a1-4)]Gal(b1-4)GlcNAc
Outline: as §1

[11] = biological target: Fuc(a1-2)[GalNAc(b1-3)]Gal
Outline: as §1

Fuc(a1-3)GlcNAc = biological target: Fuc(a1-3)GlcNAc
Outline: as §1

[12] = biological target: Fuc(a1-3)[Gal(b1-4)]Glc6S
Outline: as §1

[13] = biological target: Fuc(a1-3)[Gal(b1-4)]GlcNAc
Outline: as §1

[14] = biological target: Fuc(a1-3)[Gal(b1-4)]GlcNAc(b1-2)Man(a1-3)[Fuc(a1-3)[Gal(b1-4)]GlcNAc(b1-2)Man(a1-6)]Man(b1-4)GlcNAc(b1-4)GlcNAc
Outline: as §1

[15] = biological target: Fuc(a1-3)[Gal(b1-4)]GlcNAc(b1-2)Man(a1-3)[Fuc(a1-3)[Gal(b1-4)]GlcNAc(b1-2)Man(a1-6)]Man(b1-4)GlcNAc(b1-4)[Fuc(a1-6)]GlcNAc
Outline: as §1

[16] = biological target: Fuc(a1-3)[Gal(b1-4)]GlcNAc(b1-3)Gal(b1-3)[Fuc(a1-4)]GlcNAc
Outline: as §1

[17] = biological target: Fuc(a1-3)[Gal(b1-4)]GlcNAc(b1-3)GalNAc
Outline: as §1

[18] = biological target: Fuc(a1-3)[Gal(b1-4)]GlcNAc(b1-4)Gal(b1-4)[Fuc(a1-3)]GlcNAc
Outline: as §1

[19] = biological target: Fuc(a1-3)[Gal(b1-4)]GlcNAc(b1-4)Gal(b1-4)[Fuc(a1-3)]GlcNAc(b1-4)Gal(b1-4)[Fuc(a1-3)]GlcNAc
Outline: as §1

[20] = biological target: Fuc(a1-3)[Gal(b1-4)]GlcNAc(b1-6)GalNAc
Outline: as §1

[21] = biological target: Fuc(a1-3)[Gal(b1-4)]GlcNAc(b1-6)[Gal(b1-3)GlcNAc(b1-3)]Gal(b1-4)Glc
Outline: as §1

[22] = biological target: Fuc(a1-3)[Gal(b1-4)]GlcNAc(b1-6)[Neu5Ac(a2-3)Gal(b1-3)]GalNAc
Outline: as §1

[23] = biological target: Fuc(a1-3)[Gal(b1-4)]GlcNAc6S
Outline: as §1

[24] = biological target: Fuc(a1-3)[Gal3S(b1-4)]GlcNAc
Outline: as §1

[25] = biological target: Fuc(a1-3)[Gal3S(b1-4)]GlcNAc6S
Outline: as §1

[26] = biological target: Fuc(a1-3)[GalNAc(b1-4)]GlcNAc
Outline: as §1

Fuc(a1-4)GlcNAc = biological target: Fuc(a1-4)GlcNAc
Outline: as §1

Fuc(b1-3)GlcNAc = biological target: Fuc(b1-3)GlcNAc
Outline: as §1

Gal(a1-2)Gal = biological target: Gal(a1-2)Gal
Outline: as §1

Gal(a1-3)Gal = biological target: Gal(a1-3)Gal
Outline: as §1

Gal(a1-3)Gal(b1-3)GlcNAc = biological target: Gal(a1-3)Gal(b1-3)GlcNAc
Outline: as §1

[27] = biological target: Gal(a1-3)Gal(b1-3)GlcNAc(b1-2)Man(a1-3)[Gal(a1-3)Gal(b1-3)GlcNAc(b1-2)Man(a1-6)]Man(b1-4)GlcNAc(b1-4)GlcNAc
Outline: as §1

[28] = biological target: Gal(a1-3)Gal(b1-3)GlcNAc(b1-3)GalNAc
Outline: as §1

[29] = biological target: Gal(a1-3)Gal(b1-3)[Fuc(a1-4)]GlcNAc(b1-2)Man(a1-3)[Gal(a1-3)Gal(b1-3)[Fuc(a1-4)]GlcNAc(b1-2)Man(a1-6)]Man(b1-4)GlcNAc(b1-4)GlcNAc
Outline: as §1

Gal(a1-3)Gal(b1-4)Glc = biological target: Gal(a1-3)Gal(b1-4)Glc
Outline: as §1

Gal(a1-3)Gal(b1-4)GlcNAc = biological target: Gal(a1-3)Gal(b1-4)GlcNAc
Outline: as §1

[30] = biological target: Gal(a1-3)Gal(b1-4)GlcNAc(b1-3)GalNAc
Outline: as §1

[31] = biological target: Gal(a1-3)Gal(b1-4)[Fuc(a1-3)]GlcNAc
Outline: as §1

[32] = biological target: Gal(a1-3)Gal(b1-4)[Fuc(a1-3)]GlcNAc(b1-2)Man(a1-3)[Gal(a1-3)Gal(b1-4)[Fuc(a1-3)]GlcNAc(b1-2)Man(a1-6)]Man(b1-4)GlcNAc(b1-4)GlcNAc
Outline: as §1

Gal(a1-3)GalNAc = biological target: Gal(a1-3)GalNAc
Outline: as §1

[33] = biological target: Gal(a1-3)[Gal(a1-4)]Gal(b1-4)GlcNAc
Outline: as §1

[34] = biological target: Gal(a1-4)Gal(b1-3)GlcNAc(b1-2)Man(a1-3)[Gal(a1-4)Gal(b1-3)GlcNAc(b1-2)Man(a1-6)]Man(b1-4)GlcNAc(b1-4)GlcNAc
Outline: as §1

Gal(a1-4)Gal(b1-4)Glc = biological target: Gal(a1-4)Gal(b1-4)Glc
Outline: as §1

Gal(a1-4)Gal(b1-4)GlcNAc = biological target: Gal(a1-4)Gal(b1-4)GlcNAc
Outline: as §1

B1: Gz-CVNH (Gibberella zeae) (protein)
chain: MGSSHHHHHHSSGLVPRGSHMGNFHESSNNIWLEDGHILHAECGNGEGDYVESTLDLDYYIGNDDGSFSWGGENFSGSASNITLDIEGDDNIPVLRAELNPMDGDPVEANVNLSERIGNDCGTLIFLA
- glycan array binding signal (z-score) [1]: -0.186
- glycan array binding signal (z-score) [2]: -0.153
- glycan array binding signal (z-score) [3]: -0.083
- glycan array binding signal (z-score) [4]: -0.162
- glycan array binding signal (z-score) [5]: -0.152
- glycan array binding signal (z-score) [6]: -0.146
- glycan array binding signal (z-score) [7]: -0.15
- glycan array binding signal (z-score) [8]: -0.091
- glycan array binding signal (z-score) [9]: 0.065
- glycan array binding signal (z-score) [10]: -0.142
- glycan array binding signal (z-score) [11]: -0.148
- glycan array binding signal (z-score) (Fuc(a1-3)GlcNAc): -0.129
- glycan array binding signal (z-score) [12]: -0.108
- glycan array binding signal (z-score) [13]: -0.14
- glycan array binding signal (z-score) [14]: -0.154
- glycan array binding signal (z-score) [15]: 0.032
- glycan array binding signal (z-score) [16]: -0.114
- glycan array binding signal (z-score) [17]: 0.031
- glycan array binding signal (z-score) [18]: -0.109
- glycan array binding signal (z-score) [19]: -0.128
- glycan array binding signal (z-score) [20]: -0.006
- glycan array binding signal (z-score) [21]: -0.145
- glycan array binding signal (z-score) [22]: -0.091
- glycan array binding signal (z-score) [23]: -0.116
- glycan array binding signal (z-score) [24]: -0.123
- glycan array binding signal (z-score) [25]: -0.066
- glycan array binding signal (z-score) [26]: -0.135
- glycan array binding signal (z-score) (Fuc(a1-4)GlcNAc): -0.152
- glycan array binding signal (z-score) (Fuc(b1-3)GlcNAc): -0.147
- glycan array binding signal (z-score) (Gal(a1-2)Gal): -0.136
- glycan array binding signal (z-score) (Gal(a1-3)Gal): -0.137
- glycan array binding signal (z-score) (Gal(a1-3)Gal(b1-3)GlcNAc): -0.169
- glycan array binding signal (z-score) [27]: 0.025
- glycan array binding signal (z-score) [28]: -0.117
- glycan array binding signal (z-score) [29]: -0.066
- glycan array binding signal (z-score) (Gal(a1-3)Gal(b1-4)Glc): -0.152
- glycan array binding signal (z-score) (Gal(a1-3)Gal(b1-4)GlcNAc): -0.144
- glycan array binding signal (z-score) [30]: -0.134
- glycan array binding signal (z-score) [31]: -0.145
- glycan array binding signal (z-score) [32]: -0.1
- glycan array binding signal (z-score) (Gal(a1-3)GalNAc): -0.123
- glycan array binding signal (z-score) [33]: -0.135
- glycan array binding signal (z-score) [34]: -0.139
- glycan array binding signal (z-score) (Gal(a1-4)Gal(b1-4)Glc): -0.114
- glycan array binding signal (z-score) (Gal(a1-4)Gal(b1-4)GlcNAc): -0.14
